Article PMC4336329 (PLoS ONE, 2015)
Screen size: about 310,000 compounds; about 14,000 (4.5%) showed an effect of 50% or more. Effects have a minus sign here. Some of the results follow.

Target: human ether-à-go-go-related gene (hERG) potassium channel (human, UniProt Q12809)
Assay: primary screen, population patch clamp on CHO cells stably expressing hERG
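Note: peak tail current of the secondary pulse compared with the same well before compound.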

human ether-à-go-go-related gene (hERG) potassium channel, sequence (Q12809 whole entry, looked up): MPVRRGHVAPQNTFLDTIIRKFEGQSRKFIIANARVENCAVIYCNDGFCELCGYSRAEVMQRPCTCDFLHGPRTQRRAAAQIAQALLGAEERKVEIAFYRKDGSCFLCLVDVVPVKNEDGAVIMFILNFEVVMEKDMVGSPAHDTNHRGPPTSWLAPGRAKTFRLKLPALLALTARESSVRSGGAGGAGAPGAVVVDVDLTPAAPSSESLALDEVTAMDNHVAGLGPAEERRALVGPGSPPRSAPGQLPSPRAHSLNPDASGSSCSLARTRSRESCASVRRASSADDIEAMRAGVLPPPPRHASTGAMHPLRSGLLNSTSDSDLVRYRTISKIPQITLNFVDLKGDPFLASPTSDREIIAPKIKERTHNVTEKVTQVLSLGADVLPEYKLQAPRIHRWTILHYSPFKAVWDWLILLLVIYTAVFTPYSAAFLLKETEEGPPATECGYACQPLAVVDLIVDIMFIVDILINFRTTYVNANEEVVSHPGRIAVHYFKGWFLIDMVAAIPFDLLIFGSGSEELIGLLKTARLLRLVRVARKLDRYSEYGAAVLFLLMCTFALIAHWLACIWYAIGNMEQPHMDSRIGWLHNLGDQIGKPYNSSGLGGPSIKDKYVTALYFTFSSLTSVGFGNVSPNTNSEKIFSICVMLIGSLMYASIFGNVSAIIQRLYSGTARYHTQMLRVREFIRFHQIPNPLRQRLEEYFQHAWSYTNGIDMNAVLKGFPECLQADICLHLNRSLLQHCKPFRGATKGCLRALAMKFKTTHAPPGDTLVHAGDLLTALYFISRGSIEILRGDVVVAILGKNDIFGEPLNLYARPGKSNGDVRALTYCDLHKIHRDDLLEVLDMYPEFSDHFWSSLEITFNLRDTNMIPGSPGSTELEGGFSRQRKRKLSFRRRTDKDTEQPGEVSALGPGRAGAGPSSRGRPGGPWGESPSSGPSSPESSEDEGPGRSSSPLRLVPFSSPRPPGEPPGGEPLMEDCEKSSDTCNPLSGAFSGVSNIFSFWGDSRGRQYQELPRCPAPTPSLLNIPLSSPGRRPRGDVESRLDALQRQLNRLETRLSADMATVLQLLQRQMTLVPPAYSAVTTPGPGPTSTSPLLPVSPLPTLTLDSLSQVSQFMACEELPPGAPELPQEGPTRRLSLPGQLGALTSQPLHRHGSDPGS

Row | Compound | hERG current change (%, negative = inhibition) at 10uM [%]
1 | O=C(OCC(=O)N1CCN(C(=O)c2ccco2)CC1)c1cc(=O)c2ccccc2o1 | -11.9
2 | COCCN(C(=O)COC(=O)C1COc2ccccc2O1)c1c(N)n(Cc2ccccc2)c(=O)[nH]c1=O (stereo not shown) | 4.92
3 | S=C(NCCCN1CCOCC1)Nc1ccc(N2CCOCC2)cc1 | 10.9
4 | Cc1ccc(C)c(S(=O)(=O)N2CCN(C(=O)Cc3ccccc3)CC2)c1 | -34.3
5 | CCn1c(-c2nn(C)c(C)c2Cl)n[nH]c1=S | 18.1
6 | O=C(O)c1cccc(NC(=O)c2cn(-c3ccccc3)nc2-c2ccc([N+](=O)[O-])cc2)c1 | 19.5
7 | Cc1c(C(=O)OC(C)C)sc(NC(=O)c2cccnc2)c1C#N | 18.3
8 | O=C(Oc1cccc(F)c1)c1ccc2c(=O)n3c(nc2c1)CCC3 | -25.9
9 | O=S1(=O)C=CC(Nc2ccccc2)C1 (stereo not shown) | -76
10 | CCOC(=O)c1ccc(COC(=O)c2nonc2N)cc1 | -2.34
11 | C/C(CC(=O)Nc1ccc2c(c1)OCCO2)=N\NC(=O)Cc1ccccc1 | -9.4
12 | C=CCNc1nc(N2CCCCC2)c(C#N)c2c1CN(Cc1ccccc1)CC2 | 2.45
13 | COC(=O)c1nc2cc3c(cc2c(C)c1C(=O)OC)OCO3 | 10.8
14 | O=C/C(=C\Nc1ccccn1)c1nc2cc(Cl)ccc2o1 | -6.2
15 | CC(NC(=O)c1ccc(S(=O)(=O)N(C)C)cc1)c1ccc(-n2ccnc2)cc1 (stereo not shown) | -74
16 | CC(=O)C1=C(c2ccccc2)NC(=O)NC1c1ccccc1OCC(=O)NCc1ccccc1 (stereo not shown) | 8.3
17 | CC1=CC(c2ccc(Cl)cc2)n2nc(NC(=O)CCC(=O)O)nc2N1 (stereo not shown) | 5.5
18 | O=C(NCc1cccs1)c1cnn2cccnc12 | -13.4
19 | CC1(C)CC(=O)C2=C(C1)OC(c1ccc(O)cc1)C(C#N)=C2N (stereo not shown) | 9
20 | CC1CCN(C(=O)c2ccc(NC(=O)c3ccccc3)cc2)CC1 | 4.15
21 | Cc1ccc2cccc(OC(=O)N3CCCC3)c2n1 | -8.73
22 | CC(CCc1ccco1)NC(=O)Cn1ncc2c(=O)oc3ccccc3c21 (stereo not shown) | -15.8

Row | Compound | hERG current change (%, negative = inhibition) at 10uM [%]
23 | Cc1cccc(C(=O)Nc2cccc3cccnc23)c1 | 9.73
24 | COc1ccccc1C(C)NS(=O)(=O)c1ccc(Cl)nc1 (stereo not shown) | -5.69
25 | COC(=O)C1=C(c2cc3ccccc3s2)C[C@@H]2CC[C@H]1N2C(=O)NC1CC1 | -17.8
26 | N/C(=N\OC(=O)CCc1ccccc1)c1cccnc1 | 16.4
27 | CCOC(=O)CSc1ncc(-c2cccc(Cl)c2)cn1 | -17.4
28 | CCOC(=O)C1CCN(S(=O)(=O)c2c(C)n(C)c(=O)n(C)c2=O)CC1 | -1.58
29 | Cc1ccc2nc(NC3=NC(CC(=O)O)C(=O)N3)nc(C)c2c1 (stereo not shown) | 7.55
30 | O=C(NCC(c1cccnc1)N1CCOCC1)c1cccs1 (stereo not shown) | 10.1
31 | COc1cccc(Oc2nccc(N(C)C)c2C#N)c1 | 13.5
32 | O=[N+]([O-])c1cc2c(cc1/C=N/n1c(-c3ccccn3)n[nH]c1=S)OCO2 | 10.9
33 | Cc1ccc(NC(=O)c2ccco2)c(NC(=O)c2ccccc2)c1 | 1.58
34 | c1ccc2c(c1)OCC(CNc1ncnc3sccc13)O2 (stereo not shown) | -20.9
35 | N#CC1=C(N)S[C@@H](C(=O)c2ccc(F)cc2)[C@@H]1c1cccs1 | -14.8
36 | CCn1cc(C(=O)NCc2ccccc2Cl)cn1 | 11.7
37 | O=C(NCc1ccccn1)C(=O)NCC1OCCN1S(=O)(=O)c1ccc(Br)cc1 (stereo not shown) | -11.5
38 | Cc1ccc(NNC(=O)c2cccs2)cc1Cl | 9.61
39 | COc1ccccc1Oc1coc2c(CN(C)C)c(O)ccc2c1=O | -11
40 | O=C(NCCC1=CCCCC1)c1cc(S(=O)(=O)N2CCCCC2)ccc1Cl | 1.24
41 | O=C(N/N=C/c1ccco1)c1ccccc1OCc1ccccc1Cl | -82.8
42 | Cc1ccc(NC(=O)NC(=O)c2cnccc2C(F)(F)F)c(C)c1 | -5.48
43 | CCSc1nnc(NC(=O)[C@@H](NC(=O)c2cc(OC)cc(OC)c2)C(C)C)s1 | -10.1
44 | CCOC(=O)C1CCCN(c2c(N3CCN(c4cccc(Cl)c4)CC3)c(=O)c2=O)C1 (stereo not shown) | -41.7

Row | Compound | hERG current change (%, negative = inhibition) at 10uM [%]
45 | NC(=O)c1cn(C2OC(CO)C(O)C2O)c2ncnc(N)c12.O (stereo not shown) | 2.67
46 | O=c1[nH]c(SCc2cccc(F)c2)nc2c1CCCC2 | -1.59
47 | Cn1c(=O)n(CC(=O)Nc2cccnc2)c2ccccc21 | -0.477
48 | CCCn1c(SCC(=O)Nc2ccc(Cl)cc2)n[nH]c1=O | 5.02
49 | COc1cc(CN2CCNC(=O)C2CC(=O)N2CCCCO2)cc(OC)c1 (stereo not shown) | 5
50 | CN(C)CCCN(CCCN(C)C)C(=S)Nc1ccc(S(=O)(=O)N2CCOCC2)cc1 | 5.9
51 | Cc1ccccc1Cn1ccc(NC(=O)c2onc(C)c2Cl)n1 | 19.1
52 | COc1cc(C(=O)NCCN2C(=O)S/C(=C\c3cccs3)C2=O)cc(OC)c1OC | -18.4
53 | CCCCn1c(NC(C)CC)nc2c1c(=O)[nH]c(=O)n2C (stereo not shown) | 9.92
54 | O=c1oc2cc(OCc3ccc(F)cc3F)ccc2cc1-c1ccccn1 | 13.2
55 | CC(C)(C)NC(=O)COC(=O)c1ccc(F)cc1Cl | 14.6
56 | C/C(=C\c1ccccc1)CN1CCC(C(=O)N2CCC(C)CC2)CC1.O=C(O)C(=O)O | -63
57 | CC(C)CN(C(=O)COC(=O)c1ccc(Cl)c(N)c1)c1c(N)n(Cc2ccccc2)c(=O)[nH]c1=O | -29.2
58 | CCOC(=O)C1=C(C)N(c2ccc(C)c(C)c2)C(=O)/C1=C\c1ccco1 | -0.86
59 | Cc1ccc(CSCCNS(=O)(=O)c2ccc([N+](=O)[O-])cc2)cc1 | -4.18
60 | CC(=O)C1=C(C)NC(SCC(=O)Nc2nc3ccccc3s2)=C(C#N)C1c1ccc(Cl)cc1 (stereo not shown) | 3.73
61 | COc1ccccc1-c1cc(C(=O)N/N=C/c2ccoc2)c2ccccc2n1 | -6.5
62 | O=C(C1=C[C@H](c2csc3ccccc23)C[C@H](OCc2ccc(CO)cc2)O1)N1CCOCC1 | -59.2
63 | COc1ccc(Cc2nc3ccc(C(=O)NCCCSC)cc3o2)cc1OC | 0.503
64 | Cc1cc(C)n(C(=O)c2ccc(S(=O)(=O)N3CCOCC3)cc2)n1 | 0.562
65 | Cc1cc(N2CCCCC2)nc2ccc(NC(=O)CCC(=O)NCCC(C)C)cc12 | -3.35
66 | O=C(O)c1ccc(CN(c2ccccc2)S(=O)(=O)c2ccccc2)cc1 | 31

Row | Compound | hERG current change (%, negative = inhibition) at 10uM [%]
67 | COc1cc(C(=O)OCCCN=C2NS(=O)(=O)c3ccccc32)cc(OC)c1OC | 21.8
68 | CCOc1ccc(C(=O)c2ccc(OCC)c(N)c2)cc1N | 0.972
69 | CC(C)c1ccc(NC2CCCN(C(=O)CCN3CCCCO3)C2)cc1 (stereo not shown) | 1.87
70 | Cn1c(/C(C#N)=C(\O)c2cccc(F)c2)nc2ccccc21 | 14.8
71 | CC1(C)Cc2c(C#N)c(N3CCOCC3)nc(-c3ccccc3)c2CO1 | -12.1
72 | CCC(C)Oc1nc2ccccc2nc1NS(=O)(=O)c1ccccc1 (stereo not shown) | 6.45
73 | COc1ccc(S(=O)(=O)N2CCN=C2SCc2cccnc2)cc1 | -33
74 | COCCN1C(=O)/C(=C/c2ccc(N3CCCC3)cc2)SC1=S | 11.1
75 | CN(C(=O)COC(=O)c1cccc(S(=O)(=O)N2CCCCCC2)c1)C1CCS(=O)(=O)C1 (stereo not shown) | -7.52
76 | COCCNc1nnc(SCC(=O)NC2CCCCC2)s1 | 5.54
77 | CC(=O)c1ccc(NC(=O)CSc2nc(=O)n3cccc(C)c3n2)cc1 | -17.3
78 | COc1ccc(N(CC(=O)NC2CCCCC2)C(=O)c2ccc(C)s2)cc1OC | 9.7
79 | COc1ccc(NC2C=CS(=O)(=O)C2)cc1 (stereo not shown) | 0.937
80 | NNC(=O)c1cc(C23CC4CC(CC(C4)C2)C3)nc2ccccc12 | 5.8
81 | COc1ccccc1NC(=O)/C(C#N)=C/c1cccnc1 | -7.89
82 | O=C1NC(=S)NC(=O)C12C(c1ccccc1)NC(=S)NC2c1ccccc1 (stereo not shown) | 9.71
83 | CC(C)c1ccc(/C=C/C(=O)NNC(=O)c2cccnc2)cc1 | -25.6
84 | CCn1cc(C(=O)OCc2cccc(Br)c2)c(=O)c2ccc(C)nc21 | -33.5
85 | COC(=O)[C@@]1(Cc2ccccc2)[C@H]2c3cc(C(=O)N4CCCC4)n(Cc4ccsc4Br)c3C[C@H]2CN1C(=O)c1ccccc1 | 9.61
86 | CCCCCCOc1ccc(/C=C/C(=O)N2CCOCC2)cc1OC | -16.2
87 | CCOC(=O)c1cnc2c(C)c(C)ccc2c1Nc1ccc(S(=O)(=O)Nc2ncccn2)cc1 | -15.3
88 | COc1ccc(/C=C/C(=O)N2CCOCC2)cc1OC | 16.9
